This is one part of the list.

The experiment has as its target T1, OsWOX13 (Oryza sativa, UniProt Q5QMM3 1-267).
T1 sequence: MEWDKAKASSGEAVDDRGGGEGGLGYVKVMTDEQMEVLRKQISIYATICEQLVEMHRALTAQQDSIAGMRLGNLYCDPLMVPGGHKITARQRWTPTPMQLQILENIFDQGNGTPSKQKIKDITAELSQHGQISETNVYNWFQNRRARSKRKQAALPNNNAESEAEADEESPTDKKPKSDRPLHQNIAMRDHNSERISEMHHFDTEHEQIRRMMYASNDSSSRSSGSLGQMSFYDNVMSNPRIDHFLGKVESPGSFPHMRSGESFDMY
Nature of the experiment: protein-binding microarray (RPBM); PBS, 2% BSA, 51.3 ng/ul salmon testes DNA, 50 uM zinc acetate, 200 nM TF, 25 C, 1 h; high values mean tight binding. The note with it: protein: recombinant; tags: N-terminal polyhistidine and DsRed monomer fusion (pET32a); label: CyDye5-dUTP incorporated in the synthesized complementary strand; 3' TTTTT single-stranded linker to array surface; dsDNA, one strand shown. The method in brief: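 Per-feature fluorescence intensity (arbitrary units), read on an Axon 4000B scanner, is the binding signal. Transcription factors carrying an N-terminal polyhistidine tag and DsRed fusion were expressed in E. coli BL21-CodonPlus and purified on Ni–NTA. A custom Agilent array, made double-stranded by primer extension with Cy5-dUTP and blocked with 2% BSA, was incubated with 200 nM protein in PBS, 2% BSA, salmon testes DNA and 50 µM zinc acetate at 25 °C for 1 h and then washed.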
As to “TTTCCTAATTAATTATTAGGTATTACAAATGGATTTTGGACGGAGTCACCTAGTGCAG”, the binding signal is 36900 fluorescence intensity (a.u.). Regarding “TTAATTGGTTAGATTTCTTGTGGTGAAACCAACCCACATGCGGAGTCACCTAGTGCAG”, the binding signal is 39500 fluorescence intensity (a.u.).

Regarding “TGGATAATTAAGCTCATGAGACGACAACGAACAATGAATGCGGAGTCACCTAGTGCAG”, the binding signal is 8610 fluorescence intensity (a.u.). For “TTGAGATTTACCATTCATTTGTTAAGATTATTCTAGGACGCGGAGTCACCTAGTGCAG” the value was 5230 fluorescence intensity (a.u.); for “ACTTATTGATTTACGCATTTTAAGACAAATTTATGATATTCGGAGTCACCTAGTGCAG”, 29100 fluorescence intensity (a.u.); for “GGTAAGCCTAATTATCTAAAGAAATCTCGCAAGGCCCTCTCGGAGTCACCTAGTGCAG”, 4060 fluorescence intensity (a.u.). The figure for “TATAATAAATTTATTTTGAATGTATCTATATTCATATTATCGGAGTCACCTAGTGCAG” is 11200 fluorescence intensity (a.u.); for “GAAGGTGATTTGTGCGGCATTGAGTTTGGGATCGGAAGAGCGGAGTCACCTAGTGCAG” it is 9710 fluorescence intensity (a.u.). As for “AAAGCAATCATTATCCGAGGTGTCACACCATCCATCCTCTCGGAGTCACCTAGTGCAG”, the binding signal is 7410 fluorescence intensity (a.u.). For “ATGATTTGAGCCGCCTGTTTGGTGATGTAACGAGGTCGCTCGGAGTCACCTAGTGCAG” the value was 13000 fluorescence intensity (a.u.); for “GCTCAAATCATAAATTGTTTCAATCTTTTACATACTCTTGCGGAGTCACCTAGTGCAG”, 15100 fluorescence intensity (a.u.); for “ATATGTGAAATTAAATTGAAACGAAGTACAGATAGTTAAACGGAGTCACCTAGTGCAG”, 7160 fluorescence intensity (a.u.). “AAAATTTAACCATAACTCATCTATCAATGCCCCTTGGTCACGGAGTCACCTAGTGCAG”: the binding signal is 3960 fluorescence intensity (a.u.).

For the sequence “AGCCTAATTAAGCTGTTATTAGCACATGTGGGTTATTGTACGGAGTCACCTAGTGCAG”, the binding signal was 22400 fluorescence intensity (a.u.). On to “GGCGATTACCTTGTTAGATTTGTCAGTATATATAAAACTTCGGAGTCACCTAGTGCAG”, for which the binding signal was 3640 fluorescence intensity (a.u.). As for “GGGATCATGATGGACAATGGAAACTCCAGCCTGTTTCTCTCGGAGTCACCTAGTGCAG”, the binding signal is 4690 fluorescence intensity (a.u.). For “AGTACTAATACTAATAATTAGTTTTATCTCCGAACAGATACGGAGTCACCTAGTGCAG” the value was 5950 fluorescence intensity (a.u.); for “AATTAATCCATGATTAGCCTATGTGATGCTACAGTAAACACGGAGTCACCTAGTGCAG”, 9000 fluorescence intensity (a.u.). The figure for “TTACGATGATATATAATTGGACGGAAGCAGCGATCATGCTCGGAGTCACCTAGTGCAG” is 14100 fluorescence intensity (a.u.); for “TAAGATAAATTAATTGGTAACCTTGTATGTCCATAAGGGTCGGAGTCACCTAGTGCAG” it is 45400 fluorescence intensity (a.u.). The figure for “AATCAATTTAAAATAATTTTGCACGTAAATCGGACGCTGACGGAGTCACCTAGTGCAG” is 17500 fluorescence intensity (a.u.); for “AATAATTTTGATACAAATATTATCAGTTTATCACTCAAAACGGAGTCACCTAGTGCAG” it is 4050 fluorescence intensity (a.u.); for “CAGCAAGCCAATTAAGCGAATTAAGCACACATCAATTGACCGGAGTCACCTAGTGCAG” it is 8530 fluorescence intensity (a.u.). Take “GATGGGATTGGGACAAAGATATGAGTGGAGGGTTGAGATGCGGAGTCACCTAGTGCAG”: the binding signal is 6790 fluorescence intensity (a.u.). For the sequence “ACGGGAATTAAACTGATTTTGATTTTGCGAGAATCCAAACCGGAGTCACCTAGTGCAG”, the binding signal is 23600 fluorescence intensity (a.u.). The figure for “TATAAAATTGATGGTTGGAATTATAAATATTTCGATTGAACGGAGTCACCTAGTGCAG” is 9830 fluorescence intensity (a.u.); for “GTTGATTAAGAAAACGATTTTGCTATATCTCACTCGAAAGCGGAGTCACCTAGTGCAG” it is 21900 fluorescence intensity (a.u.). “TTTTGTTTCTTGATTTGAACAAGTGATGGTAGCTGAGCTGCGGAGTCACCTAGTGCAG”: the binding signal is 3860 fluorescence intensity (a.u.). As to “TCATTAATTAATTAATTACAGTGGTAGATGATGATGTAGTCGGAGTCACCTAGTGCAG”, the binding signal is 64000 fluorescence intensity (a.u.). As to “ACCCGTTTCAAATTTGAATTTGAATTATATCTGATTCAATCGGAGTCACCTAGTGCAG”, the binding signal is 4590 fluorescence intensity (a.u.). Take “AGACCATTTCACCAATCATATCATTTTATTCTTGGTTTCACGGAGTCACCTAGTGCAG”: the binding signal was 7460 fluorescence intensity (a.u.).

“GGGATAGGAAAATGATTTTCTACCCACCATAAGACATCTTCGGAGTCACCTAGTGCAG”: the binding signal is 3680 fluorescence intensity (a.u.). The figure for “ATAGGTTAGATGATGATGATTATCACGATATTCTACCTCGCGGAGTCACCTAGTGCAG” is 12000 fluorescence intensity (a.u.). Take “GCATGATTTTAAATCTTACATTAACTTTTGCATATATTCACGGAGTCACCTAGTGCAG”: the binding signal was 16400 fluorescence intensity (a.u.). For “CAGGCTACTGTAAATGATCAATCAACCTTTCTAGCTGGCTCGGAGTCACCTAGTGCAG”, the binding signal is 8630 fluorescence intensity (a.u.). Regarding “TGTCCATAAATTTGTTCTCATTCTCTGTTTATGGAACAACCGGAGTCACCTAGTGCAG”, the binding signal was 5830 fluorescence intensity (a.u.). Regarding “CATCGATTATTTGATAAAAGAATTGTTGACTGAACTACCACGGAGTCACCTAGTGCAG”, the binding signal was 4420 fluorescence intensity (a.u.).

For “AGTTGAAGATCTAAATTGATATTCATGTACTCCCTCTGTTCGGAGTCACCTAGTGCAG”, the binding signal is 16800 fluorescence intensity (a.u.). Take “TTGATAAACAGAGGAGACGTGGTGTTGCGATTGTGGGGCTCGGAGTCACCTAGTGCAG”: the binding signal was 7540 fluorescence intensity (a.u.).

Take “TGTATGTCGTTTGTCAAATTGAAACTAATGTTAAGAACGTCGGAGTCACCTAGTGCAG”: the binding signal was 3230 fluorescence intensity (a.u.). On to “ACATAAATTATCACATAAATCCAAACCCATGAAACACACTCGGAGTCACCTAGTGCAG”, for which the binding signal was 10600 fluorescence intensity (a.u.).

In the case of “ACTAACTAAAATTTGGAATAAACATAATAAAATTAAAAGTCGGAGTCACCTAGTGCAG”, the binding signal was 6360 fluorescence intensity (a.u.).

(Values after publication PMC7819943, “Rice protein-binding microarrays: a tool to detect cis-acting elements near promoter regions in rice”.)
